In a collection of fitness landscapes (doi:10.1016/j.celrep.2020.107928):
Whole data set: some 81,000 sequences, median “one-hybrid fitness for binding NBS DNA” near -0.1, cut for the highest 2% near 0.36. This is one part of the list.

B1: Caulobacter ParB omega fusion; a variant is named by its letters at X, in order, B8GW30 (parent)
chain: MESVVVGEPGMSEGRRGLGRGLSALLGEVDAAPAQAPGEQLGGSREAPIEILQRNPDQPRRTFREEDLEDLSNSIREKGVLQPILVRPSPDTAGEYQIVAGERAWRAAQRAGLKTVPIMVRELDDLAVLEIGIIENVQRADLNVLEEALSYKVLMEKFERTQENIAQTIGKSXSHVANXMRLLXLPDEVQSYLVSGELTAXHARAIAAAADPVALAKQIIEGGLSVRETEALARKAPNLSAGKSKGGRPPRVKDTDTQALESDLSSVLGLDVSIDHRGSTGTLTITYATLEQLDDLCNRLTRGI

Variants of: B1
Test: one-hybrid fitness for binding NBS DNA (the Noc-binding site; scaled: cognate 1, non-cognate 0); higher = stronger binding
Settings: with NBS DNA site
Method in brief: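 Fitness here means the log change in variant-to-wild-type read ratio between plasmids sequenced before and after selection. That scale was set so cognate equals 1 and non-cognate equals 0. The selection was a bacterial one-hybrid screen of Caulobacter ParB libraries, four specificity codons randomised, in E. coli USO carrying a HIS3 reporter with the site 19 bp from the promoter, grown 48 hours at 37°C on M9-minus-histidine with 0.1 mM IPTG and 5 mM 3-AT.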

QQWV and ATQF cannot be ordered by “one-hybrid fitness for binding NBS DNA” value: at most 0.2 for the first, at most 0.2 for the second.

WQCG and ETRD cannot be ordered by “one-hybrid fitness for binding NBS DNA” value: at most 0.2 for the first, at most 0.2 for the second.

NDMF and FAFN cannot be ordered by “one-hybrid fitness for binding NBS DNA” value: at most 0.2 for the first, at most 0.2 for the second.

SHPY and FSQG cannot be ordered by “one-hybrid fitness for binding NBS DNA” value: at most 0.2 for the first, at most 0.2 for the second.

QKPW and HDCG cannot be ordered by “one-hybrid fitness for binding NBS DNA” value: at most 0.2 for the first, at most 0.2 for the second.

MLQS and AFFT cannot be ordered by “one-hybrid fitness for binding NBS DNA” value: at most 0.2 for the first, at most 0.2 for the second.

MTNC and DQAY cannot be ordered by “one-hybrid fitness for binding NBS DNA” value: at most 0.2 for the first, at most 0.2 for the second.

NLLL and ARTW cannot be ordered by “one-hybrid fitness for binding NBS DNA” value: at most 0.2 for the first, at most 0.2 for the second.

RPHA and CSPG cannot be ordered by “one-hybrid fitness for binding NBS DNA” value: at most 0.2 for the first, at most 0.2 for the second.

LLTR and QDPW cannot be ordered by “one-hybrid fitness for binding NBS DNA” value: at most 0.2 for the first, at most 0.2 for the second.

Compared with SLVG, QHKP is higher in “one-hybrid fitness for binding NBS DNA” value: at most 0.2 for the first, 0.255 for the second.

Compared with RSHT, PREG is lower in “one-hybrid fitness for binding NBS DNA” value: 0.402 for the first, at most 0.2 for the second.

NVAE and LAQM cannot be ordered by “one-hybrid fitness for binding NBS DNA” value: at most 0.2 for the first, at most 0.2 for the second.

HFFS and YFCG cannot be ordered by “one-hybrid fitness for binding NBS DNA” value: at most 0.2 for the first, at most 0.2 for the second.

PVMM and IRTA cannot be ordered by “one-hybrid fitness for binding NBS DNA” value: at most 0.2 for the first, at most 0.2 for the second.

PASW and HIVR cannot be ordered by “one-hybrid fitness for binding NBS DNA” value: at most 0.2 for the first, at most 0.2 for the second.

EQTC and CDHS cannot be ordered by “one-hybrid fitness for binding NBS DNA” value: at most 0.2 for the first, at most 0.2 for the second.

SPIE and DANC cannot be ordered by “one-hybrid fitness for binding NBS DNA” value: at most 0.2 for the first, at most 0.2 for the second.

LKVD and FVKE cannot be ordered by “one-hybrid fitness for binding NBS DNA” value: at most 0.2 for the first, at most 0.2 for the second.

LHEW and YRPL cannot be ordered by “one-hybrid fitness for binding NBS DNA” value: at most 0.2 for the first, at most 0.2 for the second.

NADL and RGIH cannot be ordered by “one-hybrid fitness for binding NBS DNA” value: at most 0.2 for the first, at most 0.2 for the second.

SYPV and QCSC cannot be ordered by “one-hybrid fitness for binding NBS DNA” value: at most 0.2 for the first, at most 0.2 for the second.

CDPT and YTNT cannot be ordered by “one-hybrid fitness for binding NBS DNA” value: at most 0.2 for the first, at most 0.2 for the second.

First: TRCS
Second: RLVS
The “one-hybrid fitness for binding NBS DNA” value of the first is lower: at most 0.2 for the first, 0.224 for the second.

QMPY and IYRC cannot be ordered by “one-hybrid fitness for binding NBS DNA” value: at most 0.2 for the first, at most 0.2 for the second.

YLSF and VRYQ cannot be ordered by “one-hybrid fitness for binding NBS DNA” value: at most 0.2 for the first, at most 0.2 for the second.

Going from QQDA to MRVN, the “one-hybrid fitness for binding NBS DNA” value falls from 0.25 to at most 0.2.

GSAH and AWIT cannot be ordered by “one-hybrid fitness for binding NBS DNA” value: at most 0.2 for the first, at most 0.2 for the second.

PSIR and RMMM cannot be ordered by “one-hybrid fitness for binding NBS DNA” value: at most 0.2 for the first, at most 0.2 for the second.

QHGY and QAYF cannot be ordered by “one-hybrid fitness for binding NBS DNA” value: at most 0.2 for the first, at most 0.2 for the second.

WIES and EPTD cannot be ordered by “one-hybrid fitness for binding NBS DNA” value: at most 0.2 for the first, at most 0.2 for the second.

LEYC and PKCY cannot be ordered by “one-hybrid fitness for binding NBS DNA” value: at most 0.2 for the first, at most 0.2 for the second.

TYAG and PSHV cannot be ordered by “one-hybrid fitness for binding NBS DNA” value: at most 0.2 for the first, at most 0.2 for the second.

SLSC and NCPD cannot be ordered by “one-hybrid fitness for binding NBS DNA” value: at most 0.2 for the first, at most 0.2 for the second.

First: TRWT
Second: QKFW
The “one-hybrid fitness for binding NBS DNA” value of the first is higher: 0.269 for the first, at most 0.2 for the second.

First: MVKR
Second: RAVD
The “one-hybrid fitness for binding NBS DNA” value of the first is higher: 0.256 for the first, at most 0.2 for the second.

DIYP and RMVG cannot be ordered by “one-hybrid fitness for binding NBS DNA” value: at most 0.2 for the first, at most 0.2 for the second.

LPSC and HRGA cannot be ordered by “one-hybrid fitness for binding NBS DNA” value: at most 0.2 for the first, at most 0.2 for the second.

NTKW was tested, and the “one-hybrid fitness for binding NBS DNA” value was at most 0.2.
